# The supplement of paper PMC8821664
# Counter-ions that a name gives are not always drawn. Some of the results follow. Many values rest on one well or one pass, so single values are uncertain.
# Test system: Beas-2B AQP5-HiBiT reporter cells
# Experiment: AQP5-HiBiT luminescence relative to vehicle (ratio to vehicle); higher = higher AQP5-HiBiT protein abundance
# Settings: 10 µM; 18 h
# 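Also: monoclonal Beas-2B line stably carrying CMV promoter-driven AQP5-HiBiT, 5,000 cells per well in 384-well plates, lytic HiBiT plus LgBiT NanoLuc luminescence, FDA-approved drug library screen.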
row,SMILES,AQP5-HiBiT luminescence
1,O=C1c2cccc3c2[C@H](CCC3)CN1[C@@H]1CN2CCC1CC2 [Palonosetron hydrochloride],1.11
2,Clc1ccccc1C(c1ccccc1)(c1ccccc1)n1ccnc1 [Clotrimazole],1.01
3,CCOc1ccc(Cc2cc([C@@H]3O[C@H](CO)[C@@H](O)[C@H](O)[C@H]3O)ccc2Cl)cc1 [Dapagliflozin],0.886
4,CCCCC(=O)O[C@H]1CC[C@H]2[C@@H]3CCc4cc(O)ccc4[C@H]3CC[C@]12C [Estradiol valerate],0.92
5,CNC(C)C1CCC(N)C(OC2C(N)CC(N)C(OC3OCC(C)(O)C(NC)C3O)C2O)O1 (stereo unspecified) [Gentamycin sulfate],0.512
6,CC[C@@H]1/C=C(\C)C[C@H](C)C[C@H](OC)[C@H]2O[C@@](O)(C(=O)C(=O)N3CCCC[C@H]3C(=O)O[C@H](/C(C)=C/[C@@H]3CC[C@H](Cl)[C@H](OC)C3)[C@H](C)[C@@H](O)CC1=O)[C@H](C)C[C@@H]2OC [Pimecrolimus],0.609
